The text below walks through data of article PMC11162469, “Discovery of RXFP2 genetic association in resistant hypertensive men and RXFP2 antagonists for the treatment of resistant hypertension” (Scientific Reports, 2024).

The target in one assay is T1, human RXFP2 (Homo sapiens, UniProt Q8WXD0).
T1 sequence (Q8WXD0 1-754): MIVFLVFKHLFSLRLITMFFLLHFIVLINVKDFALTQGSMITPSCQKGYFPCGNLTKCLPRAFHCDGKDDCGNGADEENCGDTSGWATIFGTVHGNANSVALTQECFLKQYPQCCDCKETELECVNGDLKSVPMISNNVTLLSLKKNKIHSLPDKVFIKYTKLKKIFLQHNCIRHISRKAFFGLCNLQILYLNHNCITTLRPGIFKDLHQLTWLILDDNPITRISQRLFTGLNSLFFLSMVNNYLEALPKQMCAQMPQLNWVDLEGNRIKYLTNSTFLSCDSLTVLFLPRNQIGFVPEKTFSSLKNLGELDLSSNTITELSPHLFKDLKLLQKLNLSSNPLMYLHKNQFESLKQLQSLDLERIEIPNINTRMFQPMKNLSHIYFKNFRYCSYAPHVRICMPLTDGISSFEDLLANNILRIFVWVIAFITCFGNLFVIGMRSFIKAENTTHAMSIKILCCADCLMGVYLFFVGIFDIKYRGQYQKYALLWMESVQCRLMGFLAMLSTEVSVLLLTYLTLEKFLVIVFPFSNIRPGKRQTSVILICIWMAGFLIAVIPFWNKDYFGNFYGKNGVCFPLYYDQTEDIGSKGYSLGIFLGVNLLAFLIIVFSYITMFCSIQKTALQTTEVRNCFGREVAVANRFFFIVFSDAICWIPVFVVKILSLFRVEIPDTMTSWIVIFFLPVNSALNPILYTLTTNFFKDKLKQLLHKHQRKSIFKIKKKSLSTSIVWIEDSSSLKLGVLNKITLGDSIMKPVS
In words: INSL3-stimulated cAMP assay in HEK293 stably expressing human RXFP2. To be noted: read-out: HEK293-human RXFP2 cAMP IC50; INSL3 EC80-stimulated cAMP, stable expression; N = 2.

The target of a further assay is T2, rat RXFP2 (Rattus norvegicus, UniProt F7EMH8).
T2 sequence (F7EMH8 20-737): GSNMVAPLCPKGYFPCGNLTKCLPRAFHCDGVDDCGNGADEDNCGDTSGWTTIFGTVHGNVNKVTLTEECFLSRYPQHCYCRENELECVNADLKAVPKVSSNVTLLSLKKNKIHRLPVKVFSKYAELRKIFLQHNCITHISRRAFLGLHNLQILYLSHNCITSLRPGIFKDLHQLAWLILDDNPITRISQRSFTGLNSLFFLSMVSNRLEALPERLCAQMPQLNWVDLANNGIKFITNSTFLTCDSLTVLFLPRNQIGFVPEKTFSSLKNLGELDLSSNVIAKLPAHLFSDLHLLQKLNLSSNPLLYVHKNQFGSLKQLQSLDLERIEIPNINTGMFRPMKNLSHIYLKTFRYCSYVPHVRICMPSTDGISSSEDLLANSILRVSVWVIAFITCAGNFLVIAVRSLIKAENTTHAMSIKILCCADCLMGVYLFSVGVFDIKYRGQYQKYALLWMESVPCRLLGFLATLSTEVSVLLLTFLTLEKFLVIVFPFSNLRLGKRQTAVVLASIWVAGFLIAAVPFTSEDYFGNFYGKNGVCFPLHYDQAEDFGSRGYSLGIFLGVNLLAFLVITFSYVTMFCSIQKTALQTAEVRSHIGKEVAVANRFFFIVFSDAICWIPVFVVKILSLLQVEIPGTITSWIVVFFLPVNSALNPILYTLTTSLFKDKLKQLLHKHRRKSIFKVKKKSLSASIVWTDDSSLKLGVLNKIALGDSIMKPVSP
In words: INSL3-stimulated cAMP assay in HEK293 stably expressing rat RXFP2.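 Also: cAMP measured with an HitHunter kit in 384-well plates, 11-point dose–response curves up to 1 µM antibody, four-parameter variable-slope fit.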 To be noted: INSL3 EC80-stimulated cAMP, stable expression, N = 2. A general note: Changes in cAMP serve as a functional read-out for many G protein-coupled receptors.

The next assay addresses T3, rat RXFP1 (Rattus norvegicus, UniProt Q6R6I6).
T3 sequence (Q6R6I6 1-758): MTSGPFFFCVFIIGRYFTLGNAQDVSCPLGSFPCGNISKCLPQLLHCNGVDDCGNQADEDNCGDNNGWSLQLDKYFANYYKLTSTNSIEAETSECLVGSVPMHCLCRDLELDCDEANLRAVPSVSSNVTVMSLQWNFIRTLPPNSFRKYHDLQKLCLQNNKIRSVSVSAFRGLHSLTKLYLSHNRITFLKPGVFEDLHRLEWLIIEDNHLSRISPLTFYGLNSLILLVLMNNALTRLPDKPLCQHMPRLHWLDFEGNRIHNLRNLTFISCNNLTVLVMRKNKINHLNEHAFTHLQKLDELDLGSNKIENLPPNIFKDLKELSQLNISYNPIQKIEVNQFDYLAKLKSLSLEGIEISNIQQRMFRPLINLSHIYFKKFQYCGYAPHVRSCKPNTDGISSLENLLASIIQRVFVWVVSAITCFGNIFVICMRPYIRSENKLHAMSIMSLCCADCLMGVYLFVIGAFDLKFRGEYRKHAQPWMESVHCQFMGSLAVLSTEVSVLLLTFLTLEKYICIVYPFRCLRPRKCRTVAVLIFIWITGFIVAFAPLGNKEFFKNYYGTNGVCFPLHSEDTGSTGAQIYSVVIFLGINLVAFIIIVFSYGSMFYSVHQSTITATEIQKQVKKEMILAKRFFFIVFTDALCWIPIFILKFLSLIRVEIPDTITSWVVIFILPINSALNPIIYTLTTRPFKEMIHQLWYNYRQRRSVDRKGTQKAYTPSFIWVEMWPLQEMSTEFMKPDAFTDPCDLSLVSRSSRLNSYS
In words: Relaxin-stimulated cAMP assay in HEK293 stably expressing rat RXFP1. The settings on record: three-point selectivity screen, n = 2.

The next assay deals with rat LDLa-linker. In words: Biacore S200 binding to rat LDLa-linker protein. The settings on record: Biacore S200, 1:1 fit; NB = No binding occurred. On the procedure:
Goat anti Rat Fc gamma fragment specific (Jackson Immunoresearch, 112-005-071) was immobilized at 30 µg/mL to a Series S CM5 chip (Cytiva Life Sciences). In three separate runs, twenty different purified recombinant rat anti RXFP2 antibodies were then captured to the CM5 chip at a concentration of 5 µg/mL. The antibody panel was captured; rat LDLa-linker or human LDLa-linker protein was flowed as analyte at the following concentrations: 20 nM, 10 nM, 5 nM, 2.5 nM, […], and 0 nM. Antibody kinetics were evaluated using a 1:1 fit model (Biacore S200).

B1: 4G7: RXFP2 monoclonal antibody from hybridoma, recombinantly expressed in a rat IgG2b backbone (antibody, V domains shown)
VH: EVKLVESGGGLVQPGASLRLSCATSGFTFTDYYMSWVRQPPGKALEWLGFIRNKATGYTTEYSASVKGRFTISRDNSQSILYLQMNTLRAEDSATYYCARDLYYGDWYFDVWGAGTTVTVSS
VL: DIVLTQSPASLAVSLGQRATISCRASESVDKYGLSFMNWFQQKPGQPPKLLIYAASNQGSGVPARFSGSGSGTNFSLNIHPMEEDDTAMYFCQQSKEVPRTFGGGTKLEIK
In the case of B1, the IC50 – broadly, the point on the concentration scale where inhibition reaches its midpoint – is around 0.311 µM with human RXFP2 and 0.0455 µM with rat RXFP2 (read-out: HEK293-rat RXFP2 cAMP IC50). In the assay with rat RXFP2, the “HEK293-rat RXFP2 cAMP % Max Response” value amounted to 81.9%. The “blockade of rRXFP1 (relaxin-stimulated cAMP)” value with rat RXFP1 is on record as “no blockade of rRXFP1 except for 4G7”. Moreover, the Kd (commonly the constant that tells how readily two partners part at equilibrium) on rat LDLa-linker is above 0.02 µM.
